# Laboratory results published in PubChem BioAssay AID504332 (National Center for Advancing Translational Sciences (NCATS), 2011).
# Screen size: about 350,000 compounds; about 31,000 (8.9%) were called active. Inconclusive means that the source gave no clear call. Such entries were picked first, then a sample of the others. Calls come from the whole dose curve; as a rule, active = well fitted inhibition curve with a large enough effect; inconclusive = small, poorly fitted or top-dose-only effect; inactive = no such curve, though single readings can be large or run the other way. Where the call is inconclusive, the potency comes from a doubtful curve fit.
# Target: Histone-lysine N-methyltransferase EHMT2 (Homo sapiens) (UniProt Q96KQ7)
# Chain of UniProt Q96KQ7 (Q96KQ7 whole entry, looked up): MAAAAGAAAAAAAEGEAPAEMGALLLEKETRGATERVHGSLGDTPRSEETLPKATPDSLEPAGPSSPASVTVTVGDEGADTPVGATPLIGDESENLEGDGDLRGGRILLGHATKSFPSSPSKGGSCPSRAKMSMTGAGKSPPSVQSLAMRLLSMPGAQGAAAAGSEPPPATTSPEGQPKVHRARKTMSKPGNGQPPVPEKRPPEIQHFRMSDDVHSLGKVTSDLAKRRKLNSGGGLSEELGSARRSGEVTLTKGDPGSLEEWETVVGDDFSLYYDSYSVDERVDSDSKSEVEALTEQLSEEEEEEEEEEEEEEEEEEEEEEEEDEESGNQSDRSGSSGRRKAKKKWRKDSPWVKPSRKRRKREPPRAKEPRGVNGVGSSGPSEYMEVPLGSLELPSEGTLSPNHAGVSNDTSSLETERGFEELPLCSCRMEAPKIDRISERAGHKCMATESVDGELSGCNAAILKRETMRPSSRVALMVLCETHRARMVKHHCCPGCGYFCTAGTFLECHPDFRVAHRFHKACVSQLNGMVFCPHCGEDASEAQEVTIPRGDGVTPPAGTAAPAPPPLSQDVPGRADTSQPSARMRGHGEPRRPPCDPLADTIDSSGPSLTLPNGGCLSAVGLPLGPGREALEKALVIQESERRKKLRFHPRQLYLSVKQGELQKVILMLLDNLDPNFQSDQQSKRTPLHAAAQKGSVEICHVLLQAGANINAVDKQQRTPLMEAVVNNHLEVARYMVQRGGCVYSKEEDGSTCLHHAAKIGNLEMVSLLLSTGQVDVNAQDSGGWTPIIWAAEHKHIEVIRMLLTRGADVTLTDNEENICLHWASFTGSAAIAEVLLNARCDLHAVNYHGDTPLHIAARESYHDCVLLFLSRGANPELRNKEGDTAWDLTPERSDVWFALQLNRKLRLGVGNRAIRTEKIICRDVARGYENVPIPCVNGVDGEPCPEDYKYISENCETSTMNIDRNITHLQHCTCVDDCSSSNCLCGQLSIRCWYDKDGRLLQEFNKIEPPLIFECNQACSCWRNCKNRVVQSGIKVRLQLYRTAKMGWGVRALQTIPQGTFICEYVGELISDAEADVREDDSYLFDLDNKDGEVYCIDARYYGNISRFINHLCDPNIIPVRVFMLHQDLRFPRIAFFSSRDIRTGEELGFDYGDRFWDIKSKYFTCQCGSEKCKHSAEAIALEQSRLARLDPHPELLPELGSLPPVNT
# Assay: qHTS Assay for Inhibitors of Histone Lysine Methyltransferase G9a; note: nearly all actives have a fitted effect of over 75% in size
# Conditions: G9a H3K9 monomethylation, AlphaScreen, 2 h; activity, negative = inhibition: at 59 µM (top of the series) unless noted
# Outline: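 AlphaScreen detection with an anti-monomethyl H3K9 antibody quantified product after a 2 h room-temperature reaction containing 500 nM biotinylated H3K9 peptide, 20 µM SAM and 20 nM enzyme, which had been preincubated 15 min with compound.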
# % is set by controls: 0 for no effect and ±100 for the full control effect; potency is the fitted concentration of half-maximal effect; tags give direction and shape of the fitted curve.
SMILES,Potency,"activity, negative = inhibition"
Cc1cccc(C(=O)Oc2ccc(/C=N/O)cc2)c1,active: 10 µM,
C=CCSc1nnc(-c2c[nH]c3ccccc23)n1CCOC,,inactive: 8.66% [at 102 µM]
COc1ccc(Cl)cc1-n1c(=S)sc2c(=O)n(-c3ccc(F)cc3)c(SCC(=O)O)nc21,active: 28.2 µM,
C#CCOCCOCCOCCNc1nc(N2CCN(C(=O)Cn3cc(CCCN=C(N)N)nn3)CC2)nc(N2CCN(C(=O)[C@H](CCCCN)n3cc(CCC(=O)O)nn3)CC2)n1,,inactive: -8.14% [at 2.33 µM]
C1CCCCCC2(CCCCC1)OCC(CN1CCOCC1)O2 (stereo not given),,inactive: 13.1%
CCOc1ccc(CCNC(=O)C2CCN(C(=O)c3cc4sccc4n3CC)CC2)cc1OCC,,inactive: 1.74%
COc1ccc(C(=O)/C=C\N2CCOCC2)cc1,"inconclusive: 3.16 µM [inhibitor, partial curve, poor fit]",
O=C(CCCN1C(=O)/C(=C/c2ccccc2)SC1=S)Nc1cccc(O)c1,"inconclusive: 28.2 µM [inhibitor, full curve]",
Cc1ccc(NC(=O)CN2CCc3ccccc3C2)cc1S(=O)(=O)N(C)C,active: 10 µM,
COc1cc(-n2nnnc2SCC(=O)N2CCN(c3ccc(F)cc3)CC2)c(OC)cc1Cl,"inconclusive: 10 µM [inhibitor, partial curve]",
C/C(=C\C(=O)c1cccnc1)Nc1ccc(C(=O)O)cc1,active: 2.24 µM,
O=C(Nc1ccccc1)c1ccc(-c2ccc([N+](=O)[O-])cc2)o1,active: 35.5 µM,
COCCNC(=O)c1ccc(Cn2c(=S)[nH]c3cc4c(cc3c2=O)OCO4)cc1,"inconclusive: 35.5 µM [inhibitor, full curve, poor fit]",
Nc1cc(C(=O)N/N=C/c2cccc([N+](=O)[O-])c2)n[nH]c1=O,"inconclusive: 3.98 µM [inhibitor, single point]",
[O]=[Bi][O][Bi]=[O],,inactive: 0.232%
COc1ccc(NC(=O)CC2C(=O)N(C)C(=S)N2CCc2ccc(F)cc2)cc1 (stereo not given),,inactive: 5.27%
Cc1ccc(NC(=O)c2ccc(CN3C(=O)CCn4nc(C)cc43)cc2)c(Cl)c1,,inactive: -29.1%
FC(F)(F)c1ccccc1C1C2=C(Nc3ncnn31)c1ccccc1CCC2 (stereo not given),"inconclusive: 3.55 µM [inhibitor, partial curve, poor fit]",
CCCn1c(=O)c2sccc2n2c(CCCC(=O)Nc3ccc(Oc4ccc(Cl)cc4)cc3)nnc12,,inactive: 7.26%
CC(=O)c1ccc(NS(=O)(=O)c2ccc(-c3cc(C)no3)s2)cc1,,inactive: 3.66%
O=C(NNC(=O)c1ccc(-n2cncn2)c([N+](=O)[O-])c1)c1cccc(Cl)c1,,inactive: 2.68% [at 102 µM]
C/C(=N\Nc1ccc(Cl)c(C(=O)O)c1)c1ccc(Br)s1,active: 35.5 µM,
COc1ccc(C(=O)NCCc2nnc(SCc3nc4ccccc4c(=O)[nH]3)n2C)cc1,,inconclusive: -62.7% [inhibitor]
CN(C)c1ccc(NC(=O)COC(=O)CCC(=O)c2ccc(F)cc2)cc1,active: 2.51 µM,
CCC(/C=N/Nc1ccc(S(=O)(=O)N2CCCC2)cc1[N+](=O)[O-])CC,"inconclusive: 3.98 µM [inhibitor, single point]",

SMILES,Potency,"activity, negative = inhibition"
CC1Cc2ccccc2N1C(=O)COc1nc2ccccc2nc1N1CCOCC1 (stereo not given),"inconclusive: 79.4 µM [inhibitor, single point]",
CC(C)N(Cc1nc(-c2ccc(Cl)cc2)no1)C(=O)/C=C/c1ccccc1,"inconclusive: 7.08 µM [inhibitor, single point]",
Clc1ccc(-n2nnc(-c3nccs3)n2)cc1Cl,active: 3.16 µM,
CCOc1ccc(NS(=O)(=O)c2ccc(NC(=S)NC(=O)C(C)C)cc2)cc1,,inactive: 25.2% [at 2.33 µM]
C=CCn1c(NC(=O)CC)c(C(=O)OCC)sc1=S,active: 44.7 µM,
CC(=O)Nc1ccc(NC(=O)C(C)OC(=O)c2ccccc2Sc2ccccc2C#N)cc1 (stereo not given),"inconclusive: 79.4 µM [inhibitor, single point]",
Oc1c(CN2CCc3ccccc3C2)cc(Cl)c2cccnc12,active: 44.7 µM,
c1ccc(C2=Nn3c(Cn4nnc5ccccc54)nnc3SC2)cc1,"inconclusive: 89.1 µM [inhibitor, partial curve, poor fit]",
O=c1cc(Cn2ccnc2)c2cc(O)ccc2o1,,inactive: -15.3% [at 102 µM]
Cc1c(NC(=O)c2cc(-c3ccc(Cl)cc3)on2)c(=O)n(-c2ccccc2)n1C,inactive,
CN(c1ccc(C(=O)Nc2ccccn2)cc1)S(=O)(=O)c1ccccc1,"inconclusive: 15.8 µM [inhibitor, partial curve, poor fit]",
COc1ccc(N2C(=O)CS(=O)(=O)C23C(=O)N(Cc2ccc(C)cc2)c2ccccc23)cc1Cl (stereo not given),"inconclusive: 20 µM [inhibitor, partial curve, poor fit]",
CC(=O)C1=C(O)C(=O)N(Cc2cccnc2)C1c1ccc(Cl)cc1Cl (stereo not given),"inconclusive: 39.8 µM [inhibitor, single point]",
O=C(NCc1ccc(F)cc1)c1ccc2c(c1)nnn2C1CCCC1,,inactive: -5.11%
CCOc1ccc(C(C)=O)cc1CSc1nnnn1-c1ccc(O)cc1,"inconclusive: 50.1 µM [inhibitor, partial curve]",
C=CCNC(=O)N1CCCC(C(=O)c2cccc(Cl)c2)C1 (stereo not given),"inconclusive: 89.1 µM [inhibitor, partial curve, poor fit]",
CCN(CC)Cc1c(O)c(Cl)cc2c(C)cc(=O)oc12,"inconclusive: 50.1 µM [inhibitor, partial curve, poor fit]",
COc1ccc(C(=O)NCCN2CCCC2)cc1[N+](=O)[O-],,inactive: -22.4% [at 102 µM]
O=C(Cn1nnc2ccccc2c1=O)Nc1ccc2c(c1)CCC2,,inactive: 21.8%
COc1ccc(S(=O)(=O)n2c([N+](=O)[O-])cnc2C)cc1OC,active: 56.2 µM,
O=c1[nH]n(-c2cccc3cccnc23)c(=O)c2ccccc12,,inactive: -22.9%
O=C(Nc1ccn([C@H]2CC[C@@H](CO)O2)c(=O)n1)c1ccccc1,,inactive: 4.32%
COC(=O)C(NC(=O)c1ccco1)(Nc1nc(C2CC2)cs1)C(F)(F)F (stereo not given),,inactive: 7.83% [at 12.7 µM]
O=C(CSc1ccc(-c2cccs2)nn1)c1cccs1,"inconclusive: 44.7 µM [inhibitor, partial curve]",
Cc1ccc(-c2nn(-c3ccccc3)cc2/C=C(\C#N)c2cccc(C#N)c2)o1,"inconclusive: 3.55 µM [inhibitor, single point]",

SMILES,Potency,"activity, negative = inhibition"
CCOC(=O)c1sc2nc(CSc3ccccc3)nc(N3CCCN(C)CC3)c2c1C,active: 44.7 µM,
CCOc1ccccc1C(=O)Oc1cc(C)[nH]c(=O)c1[N+](=O)[O-],"inconclusive: 63.1 µM [inhibitor, partial curve, poor fit]",
COc1ccc(C(=O)OCC(=O)c2c[nH]c3ccccc23)cc1OC,"inconclusive: 3.16 µM [inhibitor, single point]",
Cc1ccc(-c2csc(=Nc3cccnc3)n2CCCn2ccnc2)cc1C,"inconclusive: 20 µM [inhibitor, single point]",
Cc1ccc(C(=O)OCC(=O)Nc2c(Cl)cc(S(N)(=O)=O)cc2Cl)o1,"inconclusive: 44.7 µM [inhibitor, partial curve, poor fit]",
O=C1CCCN1CC(O)CS(=O)(=O)c1ccccc1 (stereo not given),"inconclusive: 89.1 µM [inhibitor, single point]",
O=c1[nH]c(/C=C\c2ccc(O)c(O)c2)nc(O)c1[N+](=O)[O-],active: 39.8 µM,
Cc1c(NC(=O)c2cc3ccccc3oc2=O)c(=O)n(-c2ccccc2)n1C,active: 25.1 µM,
O=C(CSc1nnc(-c2cccnc2)o1)NNC(=O)c1ccc(Br)cc1,,inactive: 13.6% [at 102 µM]
COc1ccc(CCC(=O)NC2CCCc3ccccc32)cc1OC (stereo not given),,inactive: -19.5% [at 102 µM]
O=C(NCC1CCCO1)C1CCN(CC2CCCCC2)CC1 (stereo not given),"inconclusive: 3.98 µM [inhibitor, partial curve, poor fit]",
COc1cccc(C(=O)NC(=S)NCc2ccco2)c1,"inconclusive: 79.4 µM [inhibitor, single point]",
CCN(CC(=O)Nc1ccc(NC(C)=O)cc1)C(=O)/C=C/c1cccs1,,inactive: 4.38%
CC(=O)Nc1ccc2nc(NC(=O)c3cccs3)sc2c1,active: 44.7 µM,
Cc1ccccc1OCC(=O)Nc1ccc2nc(SCc3ccccc3)sc2c1,,inactive: 3.23%
COC(=O)Cn1c2ccccc2c2nc(=O)cc(C)n21,,inactive: -3% [at 102 µM]
Cc1nn(-c2ccccc2)c2sc(-c3n[nH]c(=S)o3)cc12,"inconclusive: 3.55 µM [inhibitor, partial curve, poor fit]",
Cc1cccc(N(CC(O)CN2CCCC2)S(=O)(=O)c2ccccc2)c1 (stereo not given),,inactive: -10.1% [at 102 µM]
O=C(NC(Cc1c[nH]c2ccccc12)C(=O)N/N=C/c1ccc(Cl)cc1)c1cccs1 (stereo not given),,inconclusive: -61.7% [inhibitor]
COc1ccc(OCC(=O)NNC(=O)c2ccc(-c3ccccc3)cc2)cc1,active: 79.4 µM,
COc1cc(/C=C(/C#N)c2nc(-c3cc4ccccc4oc3=O)cs2)cc([N+](=O)[O-])c1O,active: 3.16 µM,
CC(=O)c1ccc(NC(=O)c2nc(-c3ccc(C)cc3)n3c2CCCCC3)cc1,,inactive: -32%
Cc1cccc(N2CCN(C(=O)Cc3ccc(-n4c(=O)[nH]c5ccsc5c4=O)cc3)CC2)c1C,"inconclusive: 44.7 µM [inhibitor, partial curve]",
O=S(=O)(c1ccc(Cl)cc1)N1CCC(N2CCCCCC2)CC1,active: 2.51 µM,
Cc1ccc(S(=O)(=O)N2CCC(C(=O)N3CCN(c4ccccn4)CC3)CC2)cc1,"inconclusive: 89.1 µM [inhibitor, single point]",
